Screen size: about 310,000 compounds; about 2,200 (0.71%) showed an effect of 50% or more. Effects have a minus sign here. Some of the results follow.

The target of this test is human ether-à-go-go-related gene (hERG) potassium channel (human, UniProt Q12809). The test is described as follows: primary screen, population patch clamp on CHO cells stably expressing hERG.
human ether-à-go-go-related gene (hERG) potassium channel, sequence (Q12809 whole entry, looked up): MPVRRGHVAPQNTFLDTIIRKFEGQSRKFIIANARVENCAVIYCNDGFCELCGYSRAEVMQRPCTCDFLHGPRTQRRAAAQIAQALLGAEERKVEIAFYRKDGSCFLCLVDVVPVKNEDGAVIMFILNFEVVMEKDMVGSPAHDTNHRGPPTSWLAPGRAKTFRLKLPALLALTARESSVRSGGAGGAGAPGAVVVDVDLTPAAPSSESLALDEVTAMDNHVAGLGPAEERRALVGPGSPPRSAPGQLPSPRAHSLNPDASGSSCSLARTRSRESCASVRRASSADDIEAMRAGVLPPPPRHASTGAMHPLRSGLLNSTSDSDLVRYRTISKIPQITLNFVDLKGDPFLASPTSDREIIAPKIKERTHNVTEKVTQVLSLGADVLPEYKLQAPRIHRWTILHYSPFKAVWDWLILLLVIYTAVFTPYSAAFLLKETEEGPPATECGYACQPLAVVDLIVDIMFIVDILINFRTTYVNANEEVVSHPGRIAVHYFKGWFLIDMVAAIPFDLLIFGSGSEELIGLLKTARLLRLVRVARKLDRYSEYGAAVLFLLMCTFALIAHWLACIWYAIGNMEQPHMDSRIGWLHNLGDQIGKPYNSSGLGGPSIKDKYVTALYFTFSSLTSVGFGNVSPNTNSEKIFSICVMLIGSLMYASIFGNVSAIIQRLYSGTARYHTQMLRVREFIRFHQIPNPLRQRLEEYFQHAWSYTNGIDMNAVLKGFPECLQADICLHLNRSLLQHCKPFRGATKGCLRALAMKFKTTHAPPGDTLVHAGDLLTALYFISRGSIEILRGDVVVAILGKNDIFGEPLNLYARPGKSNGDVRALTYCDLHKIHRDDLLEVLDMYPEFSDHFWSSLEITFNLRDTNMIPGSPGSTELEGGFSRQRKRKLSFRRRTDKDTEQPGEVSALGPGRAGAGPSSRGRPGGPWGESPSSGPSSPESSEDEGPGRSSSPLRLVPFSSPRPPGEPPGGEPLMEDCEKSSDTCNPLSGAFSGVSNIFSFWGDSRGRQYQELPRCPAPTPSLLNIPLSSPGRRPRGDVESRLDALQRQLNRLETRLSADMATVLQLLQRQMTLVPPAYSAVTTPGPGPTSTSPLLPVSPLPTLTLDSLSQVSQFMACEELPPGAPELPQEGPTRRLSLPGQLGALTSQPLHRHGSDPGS
On to `O=C(Nc1ccccc1Cl)c1ccc2nsnc2c1`, for which the “hERG current change (%, negative = inhibition) at 1uM” value is listed as 5.79%.
On to `CC(C)/C=C(/C(=O)c1ccc(Cl)cc1Cl)n1cncn1`, for which the “hERG current change (%, negative = inhibition) at 1uM” value was found to be 26.7%.
As for `Cc1cc(-c2ccccc2)n2ncc(C#N)c2n1`, the figure is -3.02%; as for `COc1ccc(CCNC(=O)CCCc2ccccc2)cc1OC`, 12.2%.
As for `Fc1ccc(NC(=S)NC2CCCCC2)c(F)c1F`, the “hERG current change (%, negative = inhibition) at 1uM” value came out at 9.08%.
For `O=C(c1ccccc1Cc1ccccc1)N1CCN(S(=O)(=O)c2ccccc2F)CC1` the value was -1.53%.
For `COCCNC(=O)C(=O)N/N=C(\C)CC(=O)Nc1cccc(C(F)(F)F)c1` the value was 15.6%; for `Cn1cc(CN2CCC(C(O)CCc3ccccc3)CC2)c(-c2ccccc2F)n1` (centres unmarked), -19.4%; for `CCOC(=O)c1c(NC(=O)CN2CCC(C)CC2)sc(C)c1C`, 5.26%.
Consider `CN(Cc1ccccc1)c1nc2c(c(=O)[nH]c(=O)n2C)n1CCCc1ccccc1`, for which the “hERG current change (%, negative = inhibition) at 1uM” value was 1.82%.
As to `O=C(NCCCn1ccnc1)c1ccc(Cl)cc1`, the “hERG current change (%, negative = inhibition) at 1uM” value was 11.4%.
Take `CCN1CCc2c(sc(N)c2C#N)C1`: the “hERG current change (%, negative = inhibition) at 1uM” value is reported as 9.27%.
Take `COc1ccccc1NS(=O)(=O)c1cc(NC(=O)c2cnccn2)ccc1N1CCOCC1`: the “hERG current change (%, negative = inhibition) at 1uM” value is given as 9.86%.
For `Cc1sc2nc(COC(=O)c3ccc(N4CCCC(C)C4)c([N+](=O)[O-])c3)[nH]c(=O)c2c1C` (centres unmarked) the value was 11.8%; for `CCCCC(=O)NC(NC(=S)N1CCOCC1)C(Cl)(Cl)Cl` (centres unmarked), -8.85%; for `Cl.N=c1n(CCN2CCCCC2)c2ccccc2n1CC(O)COc1ccccc1` (centres unmarked), -32.7%.
On to `CCCN(C(=O)C1=COCCO1)c1c(N)n(Cc2ccccc2)c(=O)[nH]c1=O`, for which the “hERG current change (%, negative = inhibition) at 1uM” value was determined as 17%.
As to `CCCc1noc(-c2cccc([N+](=O)[O-])c2)n1`, the “hERG current change (%, negative = inhibition) at 1uM” value is 2.18%.
Regarding `CC1CCCCC1NC(=O)c1cc2c(s1)CS(=O)(=O)C2` (centres unmarked), the “hERG current change (%, negative = inhibition) at 1uM” value is given as 6.99%.
`COc1ccc(-c2oc(=O)c3cc(OC)c(OC)cc3c2/C=C/c2cccc([N+](=O)[O-])c2)cc1`: the “hERG current change (%, negative = inhibition) at 1uM” value came to 4.92%.
Turning to `CC(=O)Nc1c(O)nc(SCC(=O)Nc2ccc(C(C)=O)cc2)[nH]c1=O`, the “hERG current change (%, negative = inhibition) at 1uM” value was determined as 6.18%.
For the molecule `COCCNC(=O)Cn1cnc2ccc(S(=O)(=O)N3CCC(C)CC3)cc2c1=O`, the “hERG current change (%, negative = inhibition) at 1uM” value amounted to 0.305%.
For the molecule `CCn1cc(C(=O)NCC(OC)OC)c(=O)c2cc(S(=O)(=O)N3CCCC3)ccc21`, the “hERG current change (%, negative = inhibition) at 1uM” value is 13.6%.
`CCOC(=O)C1CCN(C(=O)c2ccccc2CCc2ccccc2)CC1`: the “hERG current change (%, negative = inhibition) at 1uM” value turned out to be 7.02%.
As to `CC(CNC(=O)CCc1nnc(CCC2CCCCC2)o1)c1ccccc1` (centres unmarked), the “hERG current change (%, negative = inhibition) at 1uM” value amounted to 5.97%.
In the case of `C#CCNC(=O)C1=C[C@H](c2coc3ccccc3c2=O)C[C@H](OCCCCO)O1`, the “hERG current change (%, negative = inhibition) at 1uM” value is -13.1%.
Regarding `COc1cc(/C=C2\C(=O)ON=C2c2ccccc2)cc(Br)c1O`, the “hERG current change (%, negative = inhibition) at 1uM” value is given as 14%.
For `CNC(=S)NNC(=O)c1cccn(Cc2ccccc2)c1=O` the value was 10%; for `O=C(CNC(=O)C(c1ccccc1)c1ccccc1)OCc1ccccc1`, 1.37%.
Consider `Cn1c(-c2ccccc2)cnc1SCC(=O)NCc1ccco1`, for which the “hERG current change (%, negative = inhibition) at 1uM” value turned out to be 8.86%.
With `CC(C)C(=O)Nc1ccc(NC(=O)c2ccccn2)cn1`, the “hERG current change (%, negative = inhibition) at 1uM” value came to 12.6%.
As for `O=c1c2ccccc2cnn1Cc1cccc(Br)c1`, the figure is 12.2%.
As for `CC(O)Cc1cn([C@@H](CCCCNC(=O)OC(C)(C)C)C(=O)N2CCN(C(=O)OC(C)(C)C)CC2)nn1` (some centres unmarked), the figure is 12.1%; as for `Cc1ccc(C)n1-c1cc(S(=O)(=O)N2CCOCC2)ccc1N1CCCC1`, 15.7%; as for `O=S(=O)(c1cccc(S(=O)(=O)N2CCOCC2)c1)N1CCCCCC1`, 15.8%.
`CC1CCC(NC(=O)C2CCN(C(=O)Nc3ccccc3)CC2)CC1` (centres unmarked): the “hERG current change (%, negative = inhibition) at 1uM” value came out at 13.4%.
For the molecule `COc1ccc2c(c1OC)C(=O)OC2c1c(O)nc(SC)n(-c2ccccc2)c1=O` (centres unmarked), the “hERG current change (%, negative = inhibition) at 1uM” value came out at 0.157%.
Turning to `CCOC(=O)C1CCN(/C=C2/C(=O)NC(=S)N(c3cccc(OC)c3)C2=O)CC1`, the “hERG current change (%, negative = inhibition) at 1uM” value was determined as 9.9%.
As to `O=C(O)CC1c2ccccc2CCN1S(=O)(=O)c1cccs1` (centres unmarked), the “hERG current change (%, negative = inhibition) at 1uM” value stood at 10.7%.
As to `Nc1[nH]c(N=NC(=O)c2ccc(F)cc2)c2ccccc12`, the “hERG current change (%, negative = inhibition) at 1uM” value came out at 7.15%.
Take `Nc1c(C(=O)N/N=C/c2ccc(Cl)cc2)cnn1-c1ccccc1`: the “hERG current change (%, negative = inhibition) at 1uM” value is 12%.
On to `COCC(C)NS(=O)(=O)c1ccc(C(=O)NC(Cc2ccccc2)c2ccccc2)cc1` (centres unmarked), for which the “hERG current change (%, negative = inhibition) at 1uM” value is on record as 6.26%.
Regarding `O=C(CSc1nnc(NC2CCCCC2)s1)NN1C(=O)NC2(CCCCC2)C1=O`, the “hERG current change (%, negative = inhibition) at 1uM” value is 8.05%.
With `CC1Cc2cc(S(=O)(=O)N3CCN(c4ccccc4F)CC3)ccc2N1C(=O)C1CC1` (centres unmarked), the “hERG current change (%, negative = inhibition) at 1uM” value is 21.8%.
As for `COc1ccc(N(CC(=O)NCCSCc2ccco2)S(=O)(=O)c2ccccc2)cc1OC`, the figure is 6.77%.
For `CC(C)Oc1ccc(S(=O)(=O)N2CCOCC2)cc1NC(=O)C1CCCC1` the value was 1.02%; for `CC(C)=CCSc1nnc([C@@H](NC(=O)OC(C)(C)C)C(C)C)o1`, 6.21%; for `CC1CCCC(NC(=O)COC(=O)c2cc(S(=O)(=O)N3CCOCC3)ccc2F)C1C` (centres unmarked), 9.78%.
Turning to `CC(=O)C(=Cc1cc(C)n(-c2ccccc2)c1C)C(C)=O`, the “hERG current change (%, negative = inhibition) at 1uM” value came out at 12.6%.
With `CC(C)(O)CC[C@@H](O)[C@](C)(O)[C@H]1CC[C@@]2(O)C3=CC(=O)[C@@H]4C[C@@H](O)[C@@H](O)C[C@]4(C)[C@H]3CC[C@]12C`, the “hERG current change (%, negative = inhibition) at 1uM” value came to 23.3%.
For `COc1ccc(S(=O)(=O)N2CCC(C(=O)N[C@H](C(=O)NCc3ccncc3)C(C)C)CC2)cc1`, the “hERG current change (%, negative = inhibition) at 1uM” value is 16.9%.
As for `O=C(CN1CCOCC1)Nc1ccc2c(c1)OC(F)(F)O2`, the figure is 8.33%.
For the molecule `CCCCn1c(N)c(N(CC)C(=O)CCNC(=O)NC23CC4CC(CC(C4)C2)C3)c(=O)[nH]c1=O`, the “hERG current change (%, negative = inhibition) at 1uM” value was determined as 8.66%.
Consider `O=C(Nc1cc2c3c(c1)CC(=O)N3CCC2)c1ccc(Cl)cc1`, for which the “hERG current change (%, negative = inhibition) at 1uM” value is -5.37%.
With `Cc1c(C(=O)O)sc(S(=O)(=O)N2CCN(C(=O)Cc3ccc(F)cc3)CC2)c1C(=O)O`, the “hERG current change (%, negative = inhibition) at 1uM” value was determined as 6.53%.
Consider `COc1ccc(N2CC(NS(=O)(=O)c3cccnc3)CC2=O)cc1` (centres unmarked), for which the “hERG current change (%, negative = inhibition) at 1uM” value stood at 19.9%.
On to `O=S1(=O)C=C(SCCN2CCCC2)c2ccccc21`, for which the “hERG current change (%, negative = inhibition) at 1uM” value is on record as 4.33%.
For `O=C(c1ccc(F)cc1)c1cnc(Nc2ccccc2)s1` the value was 18.2%; for `O=c1cc(N2CCCCC2)c(-c2ccccc2)nn1Cc1cccc(F)c1`, -9.67%.
Take `CCc1ccccc1NC(=O)NCc1ccc2c(c1)OCO2`: the “hERG current change (%, negative = inhibition) at 1uM” value is recorded as 10.6%.
On to `CCOC(=O)C(=CNc1ccc(C(O)(C(=O)OCC)C(F)(F)F)cc1C)C(=O)OCC` (centres unmarked), for which the “hERG current change (%, negative = inhibition) at 1uM” value is recorded as -2.89%.
Consider `CC(C)(C)C(=O)Nc1ccc(N2CCN(S(C)(=O)=O)CC2)cc1`, for which the “hERG current change (%, negative = inhibition) at 1uM” value stood at 10.6%.
In the case of `Cc1ccc(NC(=O)[C@@H](C)NC(=O)[C@@H]2Cc3ccccc3CN2)cc1`, the “hERG current change (%, negative = inhibition) at 1uM” value was -2.72%.
For `Cc1ccc(N=C2NC(=O)C(CO)(CO)S2)cc1`, the “hERG current change (%, negative = inhibition) at 1uM” value is recorded as 8.61%.
Take `O=C(/C=C/c1ccc([N+](=O)[O-])s1)N1CCN(c2ccccc2)CC1`: the “hERG current change (%, negative = inhibition) at 1uM” value is recorded as -6.06%.
Take `CC(=O)NS(=O)(=O)c1ccc(NC(=O)c2ccc(NC(=O)c3cccs3)cc2)cc1`: the “hERG current change (%, negative = inhibition) at 1uM” value is given as 7.23%.
Turning to `CCCC(=O)NC(Oc1ccccc1Cl)C(Cl)(Cl)Cl` (centres unmarked), the “hERG current change (%, negative = inhibition) at 1uM” value amounted to 6%.
Consider `Cc1ccc(NS(=O)(=O)c2ccc(Cl)s2)nc1`, for which the “hERG current change (%, negative = inhibition) at 1uM” value is recorded as 12.6%.
Take `CC(=O)Cc1nsc(NC(=O)c2cccc(F)c2)n1`: the “hERG current change (%, negative = inhibition) at 1uM” value is listed as 14.2%.
For `O=C(O)CCc1ccc(-c2ccc(Br)cc2)n1Cc1ccco1`, the “hERG current change (%, negative = inhibition) at 1uM” value came to 17.3%.
With `Cc1cc(C)nc(NS(=O)(=O)c2ccc(NC(=O)Nc3ccccc3)cc2)n1`, the “hERG current change (%, negative = inhibition) at 1uM” value is listed as 14.7%.
As to `CS(=O)(=O)Nc1ccc(C(=O)CC(=O)Nc2ccc([N+](=O)[O-])cc2)cc1`, the “hERG current change (%, negative = inhibition) at 1uM” value is on record as -24.6%.
As for `N=C1C(c2nc3ccccc3s2)=C(O)CN1c1ccccc1`, the “hERG current change (%, negative = inhibition) at 1uM” value is reported as 12.4%.
Take `O=C(Nc1ccc(F)cc1F)Nc1ccc(F)cc1F`: the “hERG current change (%, negative = inhibition) at 1uM” value is 6.75%.
For the molecule `O=C(NP(=O)(N1CCCC1)N1CCCC1)C1=C(N2CCOCC2)/C(=C/c2cccc([N+](=O)[O-])c2)CC1`, the “hERG current change (%, negative = inhibition) at 1uM” value is -0.708%.
Turning to `COc1ccc(C(CNC(=O)c2ccc(-c3ccccc3Cl)o2)N2CCOCC2)cc1` (centres unmarked), the “hERG current change (%, negative = inhibition) at 1uM” value is given as -7.11%.
As to `CC(C)Cc1nc2sc3c(SCC(N)=O)ncnc3c2c2c1CCC2`, the “hERG current change (%, negative = inhibition) at 1uM” value was 16%.
As for `COc1cc(C(=O)N2CCN(c3ccc(C)cc3C)CC2)cc(OC)c1OC`, the “hERG current change (%, negative = inhibition) at 1uM” value was found to be 0.739%.
With `COc1ccc2c(CCNC(=O)c3ccc([N+](=O)[O-])cc3)c[nH]c2c1`, the “hERG current change (%, negative = inhibition) at 1uM” value stood at 12.8%.
As for `Oc1ccccc1C1=NCCNC(C(F)(F)C(F)F)=C1`, the figure is -0.129%.
Turning to `Cc1ccc(S(=O)(=O)N/N=C/c2ccc(C(=O)O)cc2)cc1`, the “hERG current change (%, negative = inhibition) at 1uM” value is recorded as 13.7%.
Regarding `COc1ccc(C(=O)Nc2c(N)nc(SCC(=O)Nc3ccc(NC(C)=O)cc3)[nH]c2=O)cc1OC`, the “hERG current change (%, negative = inhibition) at 1uM” value turned out to be 15.8%.
For `COCCNc1nc(-c2cc(-c3ccccc3)on2)cc(C(C)C)n1` the value was 8.84%; for `COc1cccc(-c2cc(=O)c3cc(NC(C)=O)ccc3[nH]2)c1`, 10.7%.
With `CCOC(=O)N1CCN(C(=O)c2ccc3c(c2)NC(=O)C(N2CCOCC2)S3)CC1` (centres unmarked), the “hERG current change (%, negative = inhibition) at 1uM” value worked out at 14.4%.
`COC(=O)c1ccc(Nc2nc(C)cc(C)n2)cc1`: the “hERG current change (%, negative = inhibition) at 1uM” value amounted to 11.3%.

These data come from publication PMC4336329 (PLoS ONE, 2015).
